Measured values reported in doi:10.1101/589580 (bioRxiv, 2019).

Biological target: full-length ZO1 with C-terminal mEGFP (UniProt Q07157 1-1748)
Assay: client partitioning into phase-separated droplets

UniProt Q07157, sequence (Q07157 whole entry): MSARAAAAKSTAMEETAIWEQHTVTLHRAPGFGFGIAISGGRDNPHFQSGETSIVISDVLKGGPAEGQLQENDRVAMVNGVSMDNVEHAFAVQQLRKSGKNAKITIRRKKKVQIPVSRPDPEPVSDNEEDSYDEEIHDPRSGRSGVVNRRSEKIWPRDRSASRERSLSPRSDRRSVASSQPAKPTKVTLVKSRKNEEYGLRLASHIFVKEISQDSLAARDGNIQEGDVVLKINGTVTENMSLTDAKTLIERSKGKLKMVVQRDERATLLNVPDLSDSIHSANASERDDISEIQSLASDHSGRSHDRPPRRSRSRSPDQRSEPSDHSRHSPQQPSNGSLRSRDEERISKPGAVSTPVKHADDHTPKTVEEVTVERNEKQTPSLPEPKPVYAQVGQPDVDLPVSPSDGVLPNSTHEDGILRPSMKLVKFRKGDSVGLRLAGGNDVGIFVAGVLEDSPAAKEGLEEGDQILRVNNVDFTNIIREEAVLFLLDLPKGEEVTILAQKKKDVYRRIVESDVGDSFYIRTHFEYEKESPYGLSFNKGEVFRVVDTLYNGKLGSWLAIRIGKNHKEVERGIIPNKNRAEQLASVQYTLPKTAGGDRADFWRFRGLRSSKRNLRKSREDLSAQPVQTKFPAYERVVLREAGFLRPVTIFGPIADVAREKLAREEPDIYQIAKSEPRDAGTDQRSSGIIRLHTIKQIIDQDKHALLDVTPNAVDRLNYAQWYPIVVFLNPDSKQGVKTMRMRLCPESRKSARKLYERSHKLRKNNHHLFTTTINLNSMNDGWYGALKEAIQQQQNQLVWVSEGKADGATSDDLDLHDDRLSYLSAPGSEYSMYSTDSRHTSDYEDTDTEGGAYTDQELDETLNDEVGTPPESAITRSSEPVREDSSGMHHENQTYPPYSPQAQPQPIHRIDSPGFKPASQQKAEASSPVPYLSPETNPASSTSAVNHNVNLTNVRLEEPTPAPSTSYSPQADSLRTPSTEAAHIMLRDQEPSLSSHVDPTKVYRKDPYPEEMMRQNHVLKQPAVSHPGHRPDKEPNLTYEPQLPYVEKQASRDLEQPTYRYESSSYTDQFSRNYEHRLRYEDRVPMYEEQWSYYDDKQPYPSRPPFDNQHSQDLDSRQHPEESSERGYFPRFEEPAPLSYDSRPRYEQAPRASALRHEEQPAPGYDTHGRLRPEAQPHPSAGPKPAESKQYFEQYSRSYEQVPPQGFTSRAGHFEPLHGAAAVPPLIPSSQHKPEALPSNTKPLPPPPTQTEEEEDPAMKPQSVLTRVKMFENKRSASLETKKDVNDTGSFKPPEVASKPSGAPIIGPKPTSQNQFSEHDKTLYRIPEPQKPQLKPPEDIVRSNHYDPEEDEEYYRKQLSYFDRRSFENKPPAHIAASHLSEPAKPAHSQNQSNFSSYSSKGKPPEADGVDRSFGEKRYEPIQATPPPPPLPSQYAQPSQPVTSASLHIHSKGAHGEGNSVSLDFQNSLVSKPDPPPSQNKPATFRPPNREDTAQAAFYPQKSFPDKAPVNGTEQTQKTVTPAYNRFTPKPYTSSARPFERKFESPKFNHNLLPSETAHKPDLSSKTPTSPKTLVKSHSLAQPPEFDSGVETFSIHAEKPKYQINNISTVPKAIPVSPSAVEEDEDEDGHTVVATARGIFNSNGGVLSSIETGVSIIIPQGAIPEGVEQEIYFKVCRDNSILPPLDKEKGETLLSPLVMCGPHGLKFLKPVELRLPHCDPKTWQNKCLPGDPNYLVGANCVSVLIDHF

B1: transcription factor YAP (natural protein)
chain: not shown
How did the “partitioning (client fluorescence inside/outside ZO1 droplets)” value turn out when B1 was run?
The value was 9 fold.
